From the supplement of paper PMC3334620
The full ranking holds about 33,000 sequences; the median of “E-score (-0.5 to 0.5)” is about -0.021, and the highest 2% start at about 0.32. The list shows a part of the results.

The sequences below were run against T1, Zap1 (UniProt P47043) (assay: PBM E-score (8-mer binding enrichment) (E-score (-0.5 to 0.5)); higher = stronger / more preferred TF binding; most listed sequences are background and not binding sites). Settings: protein concentration: 200 nM; construct: GST-full length.
T1 sequence: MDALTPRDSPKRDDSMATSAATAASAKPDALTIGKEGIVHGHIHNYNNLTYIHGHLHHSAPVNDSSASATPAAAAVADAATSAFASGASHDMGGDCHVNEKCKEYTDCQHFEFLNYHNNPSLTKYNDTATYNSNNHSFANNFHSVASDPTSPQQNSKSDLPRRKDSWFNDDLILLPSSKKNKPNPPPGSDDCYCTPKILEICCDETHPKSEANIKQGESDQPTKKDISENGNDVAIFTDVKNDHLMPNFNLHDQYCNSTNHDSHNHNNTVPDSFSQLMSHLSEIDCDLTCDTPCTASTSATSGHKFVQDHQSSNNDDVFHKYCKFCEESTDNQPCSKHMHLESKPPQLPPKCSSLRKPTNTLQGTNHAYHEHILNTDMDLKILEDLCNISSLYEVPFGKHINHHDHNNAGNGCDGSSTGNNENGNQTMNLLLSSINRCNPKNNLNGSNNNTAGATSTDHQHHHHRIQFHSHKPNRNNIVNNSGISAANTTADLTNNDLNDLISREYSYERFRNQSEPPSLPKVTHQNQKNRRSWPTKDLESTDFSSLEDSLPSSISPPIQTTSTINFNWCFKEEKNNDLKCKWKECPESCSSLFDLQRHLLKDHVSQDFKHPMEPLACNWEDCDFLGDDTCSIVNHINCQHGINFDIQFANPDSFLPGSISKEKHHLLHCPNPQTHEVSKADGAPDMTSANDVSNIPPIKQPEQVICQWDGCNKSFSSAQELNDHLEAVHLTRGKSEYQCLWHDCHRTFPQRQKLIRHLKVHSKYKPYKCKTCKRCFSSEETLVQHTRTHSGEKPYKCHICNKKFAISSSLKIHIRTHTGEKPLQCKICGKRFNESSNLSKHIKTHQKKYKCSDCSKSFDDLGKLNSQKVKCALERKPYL
Procedure, shortened: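 Masliner-normalised scans of fluorescent anti-GST signal were the basis for scoring. That signal came from GST-tagged yeast transcription factors applied at about 100-200 nM to double-stranded universal all-10-mer Agilent arrays on fresh or once-stripped slides. Each ungapped eight-base word, pooled with its reverse complement, received an E-score from the Universal PBM Analysis Suite.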

| Sequence | PBM E-score |
| --- | --- |
| CGTAGGTC | -0.135 |
| ATAGAGGG | -0.0117 |
| ACTTCTCC | -0.155 |
| ATACCTAT | 0.198 |
| CAAGCCTG | -0.201 |
| GCGTTCAC | -0.0284 |
| ATGTTGCC | -0.203 |
| ACTACAGT | 0.0525 |
| AGCGGCCC | -0.193 |
| AAATGCGT | -0.113 |
| TCATGTAA | 0.0291 |
| GAGTCTGA | -0.232 |
| ATTTGTAC | 0.0992 |
| CATAGACA | 0.0191 |
| GAAACCTA | 0.0599 |
| AAGATTAA | 0.0788 |
| GACCCTTA | 0.376 |
| CATTCCTC | -0.103 |
| AAGCTACA | -0.226 |
| CATCACGC | -0.017 |
| ATGCTTAA | -0.028 |
| AATTGTAA | 0.0936 |
| AGCCCAGC | -0.243 |
| ACAGGGAA | -0.0781 |
| GTCCACGA | 0.041 |

| Sequence | PBM E-score |
| --- | --- |
| TAGCCAGA | -0.00683 |
| AGCTAATC | 0.0224 |
| GGAGCTAC | -0.178 |
| ACGCTCGC | -0.088 |
| AGAGTCTG | -0.259 |
| TGTTACAA | 0.098 |
| GTACTCGA | -0.0599 |
| CATATGAA | 0.108 |
| GAGATCTA | -0.114 |
| CCCAAGCG | -0.113 |
| AACTTGTA | 0.0256 |
| GCCCACCA | -0.217 |
| ATTAACAC | 0.172 |
| CTTTGGTA | -0.0191 |
| AGGAACGG | 0.00118 |
| CATAACAG | -0.0694 |
| CTTAAAGA | 0.101 |
| GAGTGTCA | 0.035 |
| AGAGTGCA | -0.105 |
| TAGACGAA | 0.0459 |
| AAGAACCC | 0.306 |
| CCCAATAC | -0.00651 |
| ACCATAAA | 0.384 |
| GGAGTGTA | -0.0955 |
| ATTTACCC | 0.155 |

| Sequence | PBM E-score |
| --- | --- |
| ACGATGTA | -0.25 |
| CAGATTAC | 0.0563 |
| CAGGGTCC | 0.14 |
| CGATGATA | -0.0676 |
| CGAGCGTA | -0.102 |
| CATAGCTC | -0.186 |
| ACAGTGGA | -0.0134 |
| CTTAATAC | 0.207 |
| ACCTCTCC | 0.0281 |
| CGTCTCAG | 0.0562 |
| AAAGATCG | -0.0307 |
| GAAGGGAA | -0.194 |
| AACTCGAG | 0.0111 |
| GAATTTGA | -0.0284 |
| GAGAATCC | -0.00686 |
| TAAGACTA | -0.0191 |
| CAGGGAAG | -0.0974 |
| CGGAGAAC | -0.14 |
| TACGCTCA | -0.0116 |
| GCGTCCAA | -0.112 |
| GTGATAAA | 0.0529 |
| TAGCACAA | 0.0953 |
| TGGCGAAA | 0.078 |
| CTTCAATA | 0.0646 |
| AACAGTGA | -0.163 |

| Sequence | PBM E-score |
| --- | --- |
| GTACAGTA | -0.0523 |
| CCCCCGCA | -0.206 |
| AGTCACAG | 0.0255 |
| TTACGCAA | 0.224 |
| CAGAAAGG | 0.234 |
| CTGTGTTC | 0.0619 |
| AACGCATA | -0.0892 |
| CGATGGCA | -0.128 |
| CGCAATAG | 0.0708 |
| ACCGACGG | 0.00095 |
| CAATACCC | 0.214 |
| TCCGAAGA | -0.115 |
| CCGTGACA | -0.136 |
| AGGCTTTG | -0.027 |
| CGGGTGGC | 0.0562 |
| GATCTGTA | -0.0107 |
| AGGTCATG | 0.416 |
| GTATCTGA | 0.0899 |
| AGGTCAGA | 0.149 |
| ATGCTCGG | -0.237 |
| TTAGTCAA | -0.0492 |
| CTCCCGGC | -0.0914 |
| CGTTGTCA | -0.0447 |
| AAACGTCT | -0.0196 |
| AAGTGGAT | 0.002 |

| Sequence | PBM E-score |
| --- | --- |
| CCGAGGCC | -0.0616 |
| CAACTGTC | -0.0568 |
| ATACTTCC | 0.0042 |
| GACTGGGC | -0.306 |
| ATACGAGA | -0.0901 |
| ACGTGGGG | -0.263 |
| GAATACTC | 0.0943 |
| GCGAGGTA | 0.229 |
| CGATCTGC | -0.114 |
| GTCGATGA | -0.149 |
| CCTTGTCC | -0.106 |
| TACGTGGA | -0.194 |
| ACAGGGGA | -0.194 |
| AGTCAGCA | -0.156 |
| CGTTGAAG | -0.0128 |
| AGCTTAAT | 0.13 |
| CTCTGCTC | -0.281 |
| CCTCTAGA | 0.167 |
| GCGAGTAC | 0.014 |
| ATACTTGC | -0.0932 |
| AAATGAAG | 0.0973 |
| ACTGCTGA | 0.0194 |
| AACGCGCA | -0.101 |
| ACAAACCA | 0.105 |
| ATACCCTG | 0.306 |

| Sequence | PBM E-score |
| --- | --- |
| AGATCAAA | -0.0021 |
| AGAATAAG | -0.0373 |
| CCTGTAGA | 0.104 |
| GCCATCTA | -0.024 |
| CTAAGCCA | -0.198 |
| ATAATAAC | 0.287 |
| ACTCCACG | -0.269 |
| CTGAGTAA | 0.145 |
| AGTCCCAG | -0.213 |
| AAAAAATT | 0.0563 |
| CCGTTAAC | 0.102 |
| GGGCCGCA | -0.127 |
| AGTTGGAC | 0.0735 |
| CTCCTTGA | -0.253 |
| CACCAGGG | 0.00214 |
| ACCAAGCT | 0.0599 |
| GGCAATCA | -0.0629 |
| CATGTTGG | -0.0429 |
| ACGAGTAT | -0.0933 |
| GCGGAGGA | -0.34 |
| AAACGGAA | 0.127 |
| CCAGACGC | -0.0692 |
| CAACTAAC | 0.21 |
| ACGCGTGG | 0.141 |
| CCTATGGA | -0.0255 |

| Sequence | PBM E-score |
| --- | --- |
| CCTGGTGC | -0.101 |
| AAGGTGGG | 0.24 |
| AACCTAAC | 0.229 |
| TGCCCAAA | -0.0925 |
| CCAGATAA | 0.165 |
| GGCATTTA | -0.273 |
| AGCACTAC | -0.0779 |
| ATGAGCTG | -0.13 |
| ATGTGTAC | 0.0297 |
| AAGTGCCT | -0.222 |
| ACCCTGCG | 0.422 |
| ATTCGCCC | -0.122 |
| CAACCGGC | 0.135 |
| ATTAGCTA | 0.027 |
| ATAGCGCC | -0.157 |
| CAAGCAGA | 0.0449 |
| AGTACGAG | 0.0684 |
| CGACTTAG | -0.0772 |
| AACGGCGT | -0.114 |
| GCTAACTA | 0.138 |
| GCCCCTTA | -0.0926 |
| ACTCTTCG | -0.153 |
